# According to PubChem BioAssay AID1030 (National Center for Advancing Translational Sciences (NCATS), 2008):
# Screen size: about 220,000 compounds; about 16,000 (7.3%) were called active. The shares of active, inactive and inconclusive entries below differ from those in the screen. Calls come from the whole dose curve; as a rule, active = well fitted inhibition curve with a large enough effect (not every such curve was filed as active); inconclusive = small, poorly fitted or top-dose-only effect, or another doubt; inactive = no such curve, though single readings can be large or run the other way. Potencies of inconclusive entries are left out as doubtful fits.
# Target: Aldehyde dehydrogenase 1A1 (Homo sapiens) (UniProt P00352)
# Experiment: qHTS Assay for Inhibitors of Aldehyde Dehydrogenase 1 (ALDH1A1);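 for activity, negative = inhibition: plate controls were no enzyme wells and a reference inhibitor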
# Details: Purified ALDH1A1, NADH fluorescence, propionaldehyde substrate; series mostly up to 75.3 µM
# Potency is the fitted concentration of half-maximal effect; tags give direction and shape of the fitted curve.
# UniProt P00352, sequence (P00352 whole entry, looked up): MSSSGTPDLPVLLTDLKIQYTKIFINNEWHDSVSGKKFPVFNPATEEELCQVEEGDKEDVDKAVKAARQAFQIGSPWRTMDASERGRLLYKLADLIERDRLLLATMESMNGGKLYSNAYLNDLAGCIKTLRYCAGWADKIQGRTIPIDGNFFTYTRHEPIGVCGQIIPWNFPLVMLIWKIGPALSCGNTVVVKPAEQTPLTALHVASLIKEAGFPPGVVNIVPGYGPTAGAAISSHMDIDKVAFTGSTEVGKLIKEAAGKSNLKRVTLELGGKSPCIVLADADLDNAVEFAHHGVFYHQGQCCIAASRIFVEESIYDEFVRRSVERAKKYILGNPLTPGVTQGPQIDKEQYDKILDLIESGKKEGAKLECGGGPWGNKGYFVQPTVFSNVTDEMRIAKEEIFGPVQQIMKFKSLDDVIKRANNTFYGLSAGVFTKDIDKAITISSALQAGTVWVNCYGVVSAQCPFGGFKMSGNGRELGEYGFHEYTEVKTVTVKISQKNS
Structure (SMILES),Potency,"activity, negative = inhibition"
Cc1cc(C(=O)CN2C(=O)NC3(CCCc4ccccc43)C2=O)c(C)n1Cc1ccccc1 (stereo unspecified),"inconclusive [inhibitor, single point]",
O=S(=O)(NC1CCCCC1NCc1ccco1)c1ccccc1 (stereo unspecified),"inconclusive [inhibitor, single point]",
COCC(C)n1c(=O)sc2ccccc2c1=O (stereo unspecified),inactive,
Cc1ccc(C)c2[nH]c(=O)c(CN(CC3CCCO3)S(=O)(=O)c3ccc4c(c3)OCCO4)cc12 (stereo unspecified),"inconclusive [inhibitor, partial curve]",
O=C(Nc1ccc(-n2ccnc2P(=O)(O)c2ccccc2)cc1)c1ccccc1Br,"inconclusive [inhibitor, partial curve]",
CN(C)S(=O)(=O)c1ccc(Cl)c(NC(=O)CSc2nc3c(cc2C#N)C(=O)CC(C)(C)C3)c1,"inconclusive [inhibitor, partial curve, poor fit]",
CC(=O)N(C1=C(O)c2ccccc2C(=O)C1=O)C1CCCCC1,active: 10 µM,
Cc1cc(C)c(C)c(S(=O)(=O)N2CCN(c3ccc(O)cc3)CC2)c1C,active: 22.4 µM,
Cc1ccccc1NC(=O)CSc1nnc(Cc2cccn2C)n1-c1ccc(F)cc1,"inconclusive [inhibitor, single point]",
COc1ccc(N(C(=O)c2cccnc2)S(=O)(=O)c2cccc([N+](=O)[O-])c2)cc1,inactive,
O=[N+]([O-])c1ccc(OCCN2CCNCC2)cc1,"inconclusive [inhibitor, single point]",
CN1CCc2c(sc(N)c2C(N)=O)C1,"inconclusive [inhibitor, partial curve]",
COCCSc1ccccc1C(=O)Nc1nnc(COC)s1,"inconclusive [inhibitor, single point]",
COc1cc(/C=C2\SC(N)=NC2=O)ccc1OCC(=O)Nc1ccc(C)cc1,inactive,
COCCn1c(CN2CC(C)CC(C)C2)nc2c1c(=O)n(C)c(=O)n2C (stereo unspecified),"inconclusive [inhibitor, single point]",
O=C(CN1CCCc2ccccc21)N/N=C/c1ccccc1,"inconclusive [inhibitor, single point]",
CCSC1=C(C#N)C(c2ccccc2OC)CC(=O)N1 (stereo unspecified),"inconclusive [inhibitor, partial curve]",
C=CCSc1nc2c(cc1C#N)CCC2,"inconclusive [inhibitor, single point]",
Cc1ccc(Cn2c(NS(=O)(=O)c3ccccc3)nc3ccccc32)cc1,"inconclusive [inhibitor, single point]",
COCCCNC(=O)c1cc2cc(Br)ccc2oc1=O,"inconclusive [inhibitor, single point]",
Cc1nc2c(ccc3nc(NC(=O)c4ccc5c(c4)OCCO5)sc32)s1,"inconclusive [inhibitor, single point]",
Cc1ccc(C(C)NC(=O)C2CCCO2)cc1C (stereo unspecified),inactive,
Cc1cc(/C=N/NC(=O)C(=O)N2CCCC2)c(C)n1-c1cccc(Br)c1,"inconclusive [inhibitor, single point]",

Structure (SMILES),Potency,"activity, negative = inhibition"
CC(=O)Oc1ccc(C2C3=C(CC(C)(C)CC3=O)Nc3cc4c(cc32)OCCO4)cc1 (stereo unspecified),"inconclusive [inhibitor, partial curve]",
CCCC(c1nnnn1CCOC)N1CCN(c2nc3ccccc3s2)CC1 (stereo unspecified),inactive,
CNC(=O)CNC(=O)Nc1ccc(Cl)c(Cl)c1,"inconclusive [inhibitor, partial curve]",
Fc1ccccc1CSc1nncn1NC/C=C/c1ccccc1,"inconclusive [inhibitor, single point]",
N#Cc1c(N)n[nH]c1CCCN,inactive,
Cc1cc(O)c(/C=N/Nc2ccccc2Cl)c(=O)o1,active: 10 µM,
CC(C)N(C(=O)CO/N=C/c1cccc([N+](=O)[O-])c1)C(C)C,"inconclusive [inhibitor, partial curve]",
N#Cc1cc(-c2ccccc2)cnc1Sc1ccccc1,"inconclusive [inhibitor, partial curve]",
CCN1C(=O)c2cccc3c(S(=O)(=O)NCCCN4CCOCC4)ccc1c23,"inconclusive [inhibitor, partial curve]",
CN(C)S(=O)(=O)c1cccc(NC(=O)Cn2cnc3ccccc3c2=O)c1,inactive,
COc1cc(OC)c2ccc(=O)oc2c1,"inconclusive [inhibitor, partial curve]",
CC1(C)CC(CC(=O)Nc2ccc([N+](=O)[O-])cc2)C(=O)O1 (stereo unspecified),inactive,
O=C(/C=C/c1ccccc1)c1ccoc1,inactive,
O=C(NC1CC1)c1ccc(-c2ccccc2)cc1,inactive,
O=[N+]([O-])c1ccc(C2NS(=O)(=O)N=C3CCCCCN32)cc1 (stereo unspecified),active: 28.2 µM,
Cc1ccc2[nH]c(=O)c(CN(Cc3cccs3)C(=S)NCC3CCCO3)cc2c1 (stereo unspecified),"inconclusive [inhibitor, partial curve]",
COc1nc(-c2ccccc2)ccc1-c1noc(COc2ccccc2)n1,"inconclusive [inhibitor, partial curve]",
Cn1ccnc1SCC(=O)c1cc2ccccc2o1,active: 20 µM,
Cc1ccc(/C(O)=C2\C(=O)C(=O)N(c3cc(C)on3)C2c2cccc(Cl)c2)cc1 (stereo unspecified),"inconclusive [inhibitor, single point]",
Cc1cc(C)c(S(=O)(=O)Nc2cccc(S(=O)(=O)NC3=NCCC3)c2)c(C)c1,"inconclusive [inhibitor, partial curve, poor fit]",
CN(C)CCN1C(=O)C(=O)/C(=C(/O)c2ccccc2)C1c1ccccc1F (stereo unspecified),active: 17.8 µM,
O=C(O)[C@@H](O)[C@@H](O)[C@H](O)[C@H](O)CO,,inactive: 2.57% [at 13.5 µM]
COC(=O)c1sc2nc(SCc3ccccc3C#N)n(N)c(=O)c2c1C,"inconclusive [inhibitor, full curve]",
